This continues a long series; more values of the same kind are listed elsewhere.
Assay: xn = mol fraction of the nth substance listed

NCCN + CC(O)CO
318.15 K, 101 kPa
Conditions	viscosity [mPa·s]
x2 = 0.2529	2.88
x2 = 0.2984	3.62
x2 = 0.3449	4.57
x2 = 0.3926	5.67
x2 = 0.4413	7.09
x2 = 0.4912	8.75
x2 = 0.5423	10.8
x2 = 0.5946	12.6
x2 = 0.6483	14.2
x2 = 0.7032	15.6
x2 = 0.7596	16.7
x2 = 0.8174	17.2
x2 = 0.8767	17.2
x2 = 0.9375	16.5

COCCOCCOCCOCCOC + O
Conditions	viscosity [mPa·s]
298 K, 101 kPa, x1 = 0.1672	6.408
298 K, 101 kPa, x1 = 0.1972	6.2
298 K, 101 kPa, x1 = 0.2273	5.915
298 K, 101 kPa, x1 = 0.3237	5.112
298 K, 101 kPa, x1 = 0.4635	4.334
298 K, 101 kPa, x1 = 0.5569	4.179
298 K, 101 kPa, x1 = 0.6402	3.78
298 K, 101 kPa, x1 = 0.7613	3.495
298 K, 101 kPa, x1 = 0.8245	3.443
298.15 K, 101.33 kPa, x1 = 0.0053	1.082
298.15 K, 101.33 kPa, x1 = 0.0132	1.424
298.15 K, 101.33 kPa, x1 = 0.0263	2.173
298.15 K, 101.33 kPa, x1 = 0.0383	2.931
298.15 K, 101.33 kPa, x1 = 0.0507	3.724
298.15 K, 101.33 kPa, x1 = 0.064	4.511
298.15 K, 101.33 kPa, x1 = 0.077	5.162
298.15 K, 101.33 kPa, x1 = 0.0865	5.54
298.15 K, 101.33 kPa, x1 = 0.1017	6.014
298.15 K, 101.33 kPa, x1 = 0.1238	6.387
298.15 K, 101.33 kPa, x1 = 0.151	6.493
298.15 K, 101.33 kPa, x1 = 0.178	6.376
298.15 K, 101.33 kPa, x1 = 0.2201	6.024
298.15 K, 101.33 kPa, x1 = 0.2593	5.661
298.15 K, 101.33 kPa, x1 = 0.3289	5.077
298.15 K, 101.33 kPa, x1 = 0.3723	4.782
298.15 K, 101.33 kPa, x1 = 0.4051	4.585
298.15 K, 101.33 kPa, x1 = 0.4349	4.431
298.15 K, 101.33 kPa, x1 = 0.5545	3.959
298.15 K, 101.33 kPa, x1 = 0.5962	3.839
298.15 K, 101.33 kPa, x1 = 0.6747	3.662
298.15 K, 101.33 kPa, x1 = 0.7566	3.524
298.15 K, 101.33 kPa, x1 = 0.8127	3.436
298.15 K, 101.33 kPa, x1 = 0.833	3.402
298.15 K, 101.33 kPa, x1 = 0.9193	3.352
298.15 K, 101.33 kPa, x1 = 0.9742	3.306
298.15 K, 101.33 kPa, x2 = 0.0057	3.326

NCCN + O
viscosity [mPa·s]
Conditions	303.15 K	308.15 K	313.15 K	318.15 K	323.15 K
101 kPa, x1 = 0.05	1.368	1.208	1.075	0.964	0.87
101 kPa, x1 = 0.0999	2.291	1.971	1.717	1.515	1.334
101 kPa, x1 = 0.103	2.417	2.078	1.809	1.586	1.402
101 kPa, x1 = 0.15	3.635	3.059	2.602	2.243	1.95
101 kPa, x1 = 0.1998	5.292	4.347	3.618	3.048	2.602
101 kPa, x1 = 0.2041	5.509	4.513	3.749	3.158	2.679
101 kPa, x1 = 0.2483	6.622	5.378	4.43	3.714	3.14
101 kPa, x1 = 0.2488	6.797	5.484	4.489	3.733	3.144
101 kPa, x1 = 0.2749	7.372	5.92	4.825	3.993	3.347
101 kPa, x1 = 0.2962	7.573	6.089	4.934	4.081	3.408
101 kPa, x1 = 0.2997	7.678	6.133	4.997	4.114	3.439
101 kPa, x1 = 0.3246	7.767	6.213	5.042	4.154	3.476
101 kPa, x1 = 0.3488	7.67	6.133	4.987	4.117	3.44
101 kPa, x1 = 0.3518	7.621	6.095	4.965	4.098	3.42
101 kPa, x1 = 0.3739	7.384	5.918	4.826	3.991	3.346
101 kPa, x1 = 0.3944	7.02	5.643	4.621	3.84	3.234
101 kPa, x1 = 0.4036	7.393	5.963	4.817	3.989	3.336
101 kPa, x1 = 0.4508	6.891	5.428	4.441	3.704	3.14
101 kPa, x1 = 0.4542	5.965	4.871	4.032	3.385	2.875
101 kPa, x1 = 0.5066	5.713	4.686	3.916	3.276	2.787
101 kPa, x1 = 0.5996	4.145	3.497	2.959	2.542	2.2
101 kPa, x1 = 0.6989	2.91	2.491	2.172	1.902	1.68
101 kPa, x1 = 0.7936	2.148	1.886	1.664	1.489	1.335
101 kPa, x1 = 0.8925	1.622	1.444	1.307	1.189	1.081
101.33 kPa, x1 = 0.05	–	–	1.075	0.964	0.87
101.33 kPa, x1 = 0.0999	–	–	1.717	1.515	1.334
101.33 kPa, x1 = 0.15	–	–	2.602	2.243	1.95
101.33 kPa, x1 = 0.1998	–	–	3.618	3.048	2.602
101.33 kPa, x1 = 0.2488	–	–	4.489	3.733	3.144
101.33 kPa, x1 = 0.2749	–	–	4.825	3.993	3.347
101.33 kPa, x1 = 0.2997	–	–	4.997	4.114	3.439
101.33 kPa, x1 = 0.3246	–	–	5.042	4.154	3.476
101.33 kPa, x1 = 0.3488	–	6.133	4.987	4.117	3.44
101.33 kPa, x1 = 0.3739	–	5.918	4.826	3.991	3.346
101.33 kPa, x1 = 0.3944	–	5.643	4.621	3.84	3.234
101.33 kPa, x1 = 0.4542	–	4.871	4.032	3.385	2.875
